Test results from the BET-seq Pho4 binding data (Le et al. 2018).
The other results are listed elsewhere or left out. The energies were worked out here from pooled read counts, against the library average; single values are noisy.

molecular target: T1, Pho4 (S. cerevisiae) (UniProt P07270); assay: relative binding free energy (BET-seq); higher = weaker binding; conditions: reference: library average
T1 sequence: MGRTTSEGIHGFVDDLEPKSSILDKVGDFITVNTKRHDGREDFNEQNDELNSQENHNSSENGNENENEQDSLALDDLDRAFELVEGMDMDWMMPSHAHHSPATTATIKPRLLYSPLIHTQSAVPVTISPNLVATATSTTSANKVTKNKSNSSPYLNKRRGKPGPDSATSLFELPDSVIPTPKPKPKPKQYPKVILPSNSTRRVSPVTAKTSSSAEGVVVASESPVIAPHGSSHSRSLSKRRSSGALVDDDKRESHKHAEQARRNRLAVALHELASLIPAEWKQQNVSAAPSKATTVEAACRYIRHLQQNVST

Row | Sequence | relative binding free energy [kcal/mol]
1 | GTTGGCACGTGTCTTC | 0.02
2 | GGGTGCACGTGGCAGT | -0.07
3 | TAGTTCACGTGGGCAT | 0.05
4 | GTGTTCACGTGTTCAT | 0.23
5 | GGATTCACGTGTTTGC | 0.33
6 | GTGGGCACGTGTGTTT | 0.01
7 | TATTCCACGTGTGAGT | 0.08
8 | GGTTCCACGTGTGGGT | 0.15
9 | GGTTGCACGTGGAATG | 0.16
10 | GAGATCACGTGTGGCG | 0.24
11 | GATGTCACGTGGGGCG | -0.01
12 | TGGAGCACGTGTATCG | -0.11
13 | GAGTGCACGTGTCTGG | 0.03
14 | TGAAACACGTGTGTTA | 0.04
15 | ATCGGCACGTGTTTGG | -0.02
16 | GTGACCACGTGGCTGT | 0.02
17 | TGAGGCACGTGGGCGC | -0.26
18 | TTGATCACGTGGTAGT | 0.14
19 | AGGTGCACGTGGTTAA | -0.09
20 | GGTTACACGTGAAGAG | 0.31
21 | AGCGACACGTGGTGGG | -0.04
22 | GTATACACGTGGCGTT | -0.13

Row | Sequence | relative binding free energy [kcal/mol]
23 | CTTCACACGTGGGTTG | -0.11
24 | AGTCTCACGTGTTGTG | 0.11
25 | AGGGTCACGTGGTTCA | 0.06
26 | TTGGACACGTGGTCTT | 0.02
27 | GTTGACACGTGTGAGC | 0.21
28 | TTTAGCACGTGGTAAA | -0.17
29 | GTTGACACGTGTGTCT | 0.03
30 | GGTTACACGTGGAAAT | 0.21
31 | TGCGCCACGTGCGGTG | -0.16
32 | AGAGTCACGTGTAGTA | -0.01
33 | CGGAGCACGTGTTTGT | -0.22
34 | TATGTCACGTGTCGTG | 0.11
35 | TTTTGCACGTGAAGAA | 0.26
36 | TATTGCACGTGGTATT | -0.12
37 | ATAGTCACGTGTTATT | 0
38 | CCTTTCACGTGGTGTG | 0.08
39 | TATGTCACGTGATGGT | 0.22
40 | GGAATCACGTGTTTAA | 0.15
41 | GTCGGCACGTGGGCTG | -0.1
42 | TTATACACGTGCATTG | 0.03
43 | TTGAACACGTGCATGG | 0.1
44 | AGTTGCACGTGTGAGC | -0.02

Row | Sequence | relative binding free energy [kcal/mol]
45 | AGGGTCACGTGTGGCG | 0.18
46 | GGCGTCACGTGGGGAT | 0.03
47 | TACTTCACGTGAGAGG | 0.39
48 | GCGCACACGTGGTGGG | -0.09
49 | AAGGGCACGTGTTGAC | -0.01
50 | GTTTTCACGTGATTCA | 0.38
51 | CGTGACACGTGTTTGC | 0.04
52 | TCGGTCACGTGCGGTA | 0.1
53 | GTGAGCACGTGGGGAA | -0.17
54 | ATTGACACGTGCTGTA | -0.06
55 | TATTTCACGTGTAGTT | 0.27
56 | CGATACACGTGTATGT | 0.18
57 | TAAGTCACGTGAAAGT | 0.26
58 | GTAGCCACGTGGGGTA | -0.2
59 | GGGCGCACGTGTGTGA | 0.05
60 | GGAATCACGTGGGGAC | 0.14
61 | TTTTACACGTGGACAG | 0.21
62 | TCGTGCACGTGTGCGT | -0.2
63 | TTTGGCACGTGAAGAA | 0.09
64 | TCTTGCACGTGCGGAG | 0.12
65 | ATCCGCACGTGGTTGG | -0.18
66 | AAAATCACGTGAAGGG | 0.25
